The other results are listed elsewhere or left out.
What was measured:
Test in all cases: glycan array binding signal (z-score within array); higher = stronger binding
Details in all cases: glycan notation: IUPAC condensed, linker removed
[1] = molecular target: Gal(b1-4)GlcNAc(b1-3)Gal(b1-4)GlcNAc(b1-2)[Gal(b1-4)GlcNAc(b1-3)Gal(b1-4)GlcNAc(b1-6)]Man(a1-6)[Gal(b1-4)GlcNAc(b1-3)Gal(b1-4)GlcNAc(b1-2)Man(a1-3)]Man(b1-4)GlcNAc(b1-4)GlcNAc
In short: (§1)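 The Consortium for Functional Glycomics database supplied 3228 glycan arrays, of which those lacking an available protein sequence were dropped. The binding signal, a within-array Z-score, was averaged across arrays of the same protein sequence and across linkers. Negative scores can be read as non-binding.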

[2] = molecular target: Gal(b1-4)GlcNAc(b1-3)Gal(b1-4)GlcNAc(b1-2)[Gal(b1-4)GlcNAc(b1-3)Gal(b1-4)GlcNAc(b1-6)]Man(a1-6)[Gal(b1-4)GlcNAc(b1-3)Gal(b1-4)GlcNAc(b1-2)Man(a1-3)]Man(b1-4)GlcNAc(b1-4)[Fuc(a1-6)]GlcNAc
In short: as §1

[3] = molecular target: Gal(b1-4)GlcNAc(b1-3)Gal(b1-4)GlcNAc(b1-3)Gal(b1-4)GlcNAc
In short: as §1

[4] = molecular target: Gal(b1-4)GlcNAc(b1-3)Gal(b1-4)GlcNAc(b1-3)Gal(b1-4)GlcNAc(b1-2)Man(a1-3)[Gal(b1-4)GlcNAc(b1-3)Gal(b1-4)GlcNAc(b1-3)Gal(b1-4)GlcNAc(b1-2)Man(a1-6)]Man(b1-4)GlcNAc(b1-4)GlcNAc
In short: as §1

[5] = molecular target: Gal(b1-4)GlcNAc(b1-3)Gal(b1-4)GlcNAc(b1-3)Gal(b1-4)GlcNAc(b1-2)Man(a1-3)[Gal(b1-4)GlcNAc(b1-3)Gal(b1-4)GlcNAc(b1-3)Gal(b1-4)GlcNAc(b1-2)Man(a1-6)]Man(b1-4)GlcNAc(b1-4)[Fuc(a1-6)]GlcNAc
In short: as §1

[6] = molecular target: Gal(b1-4)GlcNAc(b1-3)Gal(b1-4)GlcNAc(b1-3)Gal(b1-4)GlcNAc(b1-2)[Gal(b1-4)GlcNAc(b1-3)Gal(b1-4)GlcNAc(b1-3)Gal(b1-4)GlcNAc(b1-6)]Man(a1-6)[Gal(b1-4)GlcNAc(b1-3)Gal(b1-4)GlcNAc(b1-3)Gal(b1-4)GlcNAc(b1-2)Man(a1-3)]Man(b1-4)GlcNAc(b1-4)[Fuc(a1-6)]GlcNAc
In short: as §1

[7] = molecular target: Gal(b1-4)GlcNAc(b1-3)Gal(b1-4)GlcNAc(b1-3)Gal(b1-4)GlcNAc(b1-3)Gal(b1-4)GlcNAc(b1-2)Man(a1-3)[Gal(b1-4)GlcNAc(b1-3)Gal(b1-4)GlcNAc(b1-3)Gal(b1-4)GlcNAc(b1-3)Gal(b1-4)GlcNAc(b1-2)Man(a1-6)]Man(b1-4)GlcNAc(b1-4)GlcNAc
In short: as §1

[8] = molecular target: Gal(b1-4)GlcNAc(b1-3)Gal(b1-4)GlcNAc(b1-3)Gal(b1-4)GlcNAc(b1-3)Gal(b1-4)GlcNAc(b1-2)Man(a1-3)[Gal(b1-4)GlcNAc(b1-3)Gal(b1-4)GlcNAc(b1-3)Gal(b1-4)GlcNAc(b1-3)Gal(b1-4)GlcNAc(b1-2)Man(a1-6)]Man(b1-4)GlcNAc(b1-4)[Fuc(a1-6)]GlcNAc
In short: as §1

[9] = molecular target: Gal(b1-4)GlcNAc(b1-3)Gal(b1-4)GlcNAc(b1-3)Gal(b1-4)GlcNAc(b1-3)Gal(b1-4)GlcNAc(b1-2)[Gal(b1-4)GlcNAc(b1-3)Gal(b1-4)GlcNAc(b1-3)Gal(b1-4)GlcNAc(b1-3)Gal(b1-4)GlcNAc(b1-6)]Man(a1-6)[Gal(b1-4)GlcNAc(b1-3)Gal(b1-4)GlcNAc(b1-3)Gal(b1-4)GlcNAc(b1-3)Gal(b1-4)GlcNAc(b1-2)Man(a1-3)]Man(b1-4)GlcNAc(b1-4)[Fuc(a1-6)]GlcNAc
In short: as §1

[10] = molecular target: Gal(b1-4)GlcNAc(b1-3)Gal(b1-4)GlcNAc(b1-3)Gal(b1-4)GlcNAc(b1-3)Gal(b1-4)GlcNAc(b1-3)Gal(b1-4)GlcNAc(b1-2)Man(a1-3)[Gal(b1-4)GlcNAc(b1-3)Gal(b1-4)GlcNAc(b1-3)Gal(b1-4)GlcNAc(b1-3)Gal(b1-4)GlcNAc(b1-3)Gal(b1-4)GlcNAc(b1-2)Man(a1-6)]Man(b1-4)GlcNAc(b1-4)GlcNAc
In short: as §1

[11] = molecular target: Gal(b1-4)GlcNAc(b1-3)Gal(b1-4)GlcNAc(b1-3)Gal(b1-4)GlcNAc(b1-3)Gal(b1-4)GlcNAc(b1-3)Gal(b1-4)GlcNAc(b1-2)Man(a1-3)[Gal(b1-4)GlcNAc(b1-3)Gal(b1-4)GlcNAc(b1-3)Gal(b1-4)GlcNAc(b1-3)Gal(b1-4)GlcNAc(b1-3)Gal(b1-4)GlcNAc(b1-2)Man(a1-6)]Man(b1-4)GlcNAc(b1-4)[Fuc(a1-6)]GlcNAc
In short: as §1

[12] = molecular target: Gal(b1-4)GlcNAc(b1-3)Gal(b1-4)GlcNAc(b1-3)Gal(b1-4)GlcNAc(b1-3)Gal(b1-4)GlcNAc(b1-3)Gal(b1-4)GlcNAc(b1-2)[Gal(b1-4)GlcNAc(b1-3)Gal(b1-4)GlcNAc(b1-3)Gal(b1-4)GlcNAc(b1-3)Gal(b1-4)GlcNAc(b1-3)Gal(b1-4)GlcNAc(b1-6)]Man(a1-6)[Gal(b1-4)GlcNAc(b1-3)Gal(b1-4)GlcNAc(b1-3)Gal(b1-4)GlcNAc(b1-3)Gal(b1-4)GlcNAc(b1-3)Gal(b1-4)GlcNAc(b1-2)Man(a1-3)]Man(b1-4)GlcNAc(b1-4)[Fuc(a1-6)]GlcNAc
In short: as §1

[13] = molecular target: Gal(b1-4)GlcNAc(b1-3)Gal(b1-4)GlcNAc(b1-3)Gal(b1-4)GlcNAc(b1-3)Gal(b1-4)GlcNAc(b1-3)Gal(b1-4)GlcNAc(b1-3)Gal(b1-4)GlcNAc(b1-2)Man(a1-3)[Gal(b1-4)GlcNAc(b1-3)Gal(b1-4)GlcNAc(b1-3)Gal(b1-4)GlcNAc(b1-3)Gal(b1-4)GlcNAc(b1-3)Gal(b1-4)GlcNAc(b1-3)Gal(b1-4)GlcNAc(b1-2)Man(a1-6)]Man(b1-4)GlcNAc(b1-4)GlcNAc
In short: as §1

[14] = molecular target: Gal(b1-4)GlcNAc(b1-3)Gal(b1-4)GlcNAc(b1-3)GalNAc
In short: as §1

[15] = molecular target: Gal(b1-4)GlcNAc(b1-3)Gal(b1-4)GlcNAc(b1-3)[Gal(b1-4)GlcNAc(b1-3)Gal(b1-4)GlcNAc(b1-6)]GalNAc
In short: as §1

[16] = molecular target: Gal(b1-4)GlcNAc(b1-3)Gal(b1-4)GlcNAc(b1-6)[Gal(b1-3)]GalNAc
In short: as §1

[17] = molecular target: Gal(b1-4)GlcNAc(b1-3)Gal(b1-4)[Fuc(a1-3)]GlcNAc(b1-3)Gal(b1-4)[Fuc(a1-3)]GlcNAc
In short: as §1

[18] = molecular target: Gal(b1-4)GlcNAc(b1-3)GalNAc
In short: as §1

[19] = molecular target: Gal(b1-4)GlcNAc(b1-3)[Fuc(a1-3)GlcNAc(b1-6)]Gal(b1-4)Glc
In short: as §1

[20] = molecular target: Gal(b1-4)GlcNAc(b1-3)[Gal(b1-4)GlcNAc(b1-6)]Gal(b1-4)GlcNAc
In short: as §1

[21] = molecular target: Gal(b1-4)GlcNAc(b1-3)[GlcNAc(b1-6)]Gal(b1-4)GlcNAc
In short: as §1

[22] = molecular target: Gal(b1-4)GlcNAc(b1-6)Gal(b1-4)GlcNAc
In short: as §1

[23] = molecular target: Gal(b1-4)GlcNAc(b1-6)GalNAc
In short: as §1

[24] = molecular target: Gal(b1-4)GlcNAc(b1-6)[Gal(b1-3)]GalNAc
In short: as §1

[25] = molecular target: Gal(b1-4)GlcNAc(b1-6)[Gal(b1-4)GlcNAc(b1-3)]GalNAc
In short: as §1

Gal(b1-4)GlcNAc6P = molecular target: Gal(b1-4)GlcNAc6P
In short: as §1

Gal(b1-6)Gal = molecular target: Gal(b1-6)Gal
In short: as §1

Gal3S(b1-3)GalNAc = molecular target: Gal3S(b1-3)GalNAc
In short: as §1

Gal3S(b1-3)GlcNAc = molecular target: Gal3S(b1-3)GlcNAc
In short: as §1

[26] = molecular target: Gal3S(b1-3)[Fuc(a1-4)]GlcNAc
In short: as §1

Gal3S(b1-4)Glc = molecular target: Gal3S(b1-4)Glc
In short: as §1

Gal3S(b1-4)Glc6S = molecular target: Gal3S(b1-4)Glc6S
In short: as §1

Gal3S(b1-4)GlcNAc = molecular target: Gal3S(b1-4)GlcNAc
In short: as §1

[27] = molecular target: Gal3S(b1-4)[Fuc(a1-3)]Glc6S
In short: as §1

[28] = molecular target: Gal3S(b1-4)[Fuc(a1-3)]GlcNAc
In short: as §1

[29] = molecular target: Gal3S(b1-4)[Fuc(a1-3)]GlcNAc6S
In short: as §1

Gal3S4S(b1-4)GlcNAc = molecular target: Gal3S4S(b1-4)GlcNAc
In short: as §1

Gal3S6S(b1-4)GlcNAc = molecular target: Gal3S6S(b1-4)GlcNAc
In short: as §1

Gal3S6S(b1-4)GlcNAc6S = molecular target: Gal3S6S(b1-4)GlcNAc6S
In short: as §1

Gal4S(b1-4)GlcNAc = molecular target: Gal4S(b1-4)GlcNAc
In short: as §1

Gal4S6S(b1-4)GlcNAc = molecular target: Gal4S6S(b1-4)GlcNAc
In short: as §1

Gal6P(b1-4)GlcNAc = molecular target: Gal6P(b1-4)GlcNAc
In short: as §1

Gal6S(b1-3)GlcNAc = molecular target: Gal6S(b1-3)GlcNAc
In short: as §1

Gal6S(b1-3)GlcNAc6S = molecular target: Gal6S(b1-3)GlcNAc6S
In short: as §1

Gal6S(b1-4)Glc = molecular target: Gal6S(b1-4)Glc
In short: as §1

B1: EULS2 M4 (Oryza sativa) (protein)
chain: MVYCRANPNYAMTARNGAVVLAPANPKDEYQHWIKDMRWSTSIKDEEGYPAFALVNKATGQAIKHSLGQSHPVRLVPYNPEVMDESVLWTESRDVGNGFRCIRMVNNIYLNFDAFHGDKYHGGVRDGTDIVLWKWCEGDSLRWKIQPYYILEQKLISEEDLNSAVDHHHHHH
- glycan array binding signal (z-score) [1]: 6.97
- glycan array binding signal (z-score) [2]: 0.005
- glycan array binding signal (z-score) [3]: -0.23
- glycan array binding signal (z-score) [4]: 0.791
- glycan array binding signal (z-score) [5]: -0.496
- glycan array binding signal (z-score) [6]: 0.009
- glycan array binding signal (z-score) [7]: -0.04
- glycan array binding signal (z-score) [8]: -0.26
- glycan array binding signal (z-score) [9]: 0.025
- glycan array binding signal (z-score) [10]: -0.273
- glycan array binding signal (z-score) [11]: 0.302
- glycan array binding signal (z-score) [12]: 4.92
- glycan array binding signal (z-score) [13]: -0.344
- glycan array binding signal (z-score) [14]: 0.083
- glycan array binding signal (z-score) [15]: 0.569
- glycan array binding signal (z-score) [16]: -0.092
- glycan array binding signal (z-score) [17]: -0.793
- glycan array binding signal (z-score) [18]: -0.506
- glycan array binding signal (z-score) [19]: 0.396
- glycan array binding signal (z-score) [20]: -0.444
- glycan array binding signal (z-score) [21]: -0.137
- glycan array binding signal (z-score) [22]: 0.664
- glycan array binding signal (z-score) [23]: -0.124
- glycan array binding signal (z-score) [24]: -0.529
- glycan array binding signal (z-score) [25]: -0.377
- glycan array binding signal (z-score) (Gal(b1-4)GlcNAc6P): -0.659
- glycan array binding signal (z-score) (Gal(b1-6)Gal): -0.437
- glycan array binding signal (z-score) (Gal3S(b1-3)GalNAc): -0.608
- glycan array binding signal (z-score) (Gal3S(b1-3)GlcNAc): -0.257
- glycan array binding signal (z-score) [26]: -0.208
- glycan array binding signal (z-score) (Gal3S(b1-4)Glc): 0.203
- glycan array binding signal (z-score) (Gal3S(b1-4)Glc6S): 0.957
- glycan array binding signal (z-score) (Gal3S(b1-4)GlcNAc): -0.155
- glycan array binding signal (z-score) [27]: -0.511
- glycan array binding signal (z-score) [28]: 0.414
- glycan array binding signal (z-score) [29]: 1.47
- glycan array binding signal (z-score) (Gal3S4S(b1-4)GlcNAc): -0.361
- glycan array binding signal (z-score) (Gal3S6S(b1-4)GlcNAc): -0.485
- glycan array binding signal (z-score) (Gal3S6S(b1-4)GlcNAc6S): 0.189
- glycan array binding signal (z-score) (Gal4S(b1-4)GlcNAc): -0.511
- glycan array binding signal (z-score) (Gal4S6S(b1-4)GlcNAc): -0.484
- glycan array binding signal (z-score) (Gal6P(b1-4)GlcNAc): -0.62
- glycan array binding signal (z-score) (Gal6S(b1-3)GlcNAc): -0.021
- glycan array binding signal (z-score) (Gal6S(b1-3)GlcNAc6S): 0.689
- glycan array binding signal (z-score) (Gal6S(b1-4)Glc): -0.141
